PubChem BioAssay AID1956 (SRMLSC, 2009)
Some of the results follow. The main result of the screen is listed elsewhere. These columns were measured beside it and carry no call.

Assay: compounds boosting herpes simplex virus growth – fold increase, host cell viability (AID 1956); also: tested in PC3 cells
Settings: HSV replication augmentation in cells; fold increase: measured here: primary screen fold increase 10 uM, at 10 µM, stronger effect = higher value; viability: measured here: host cell viability series, at 25 µM, stronger effect = lower value

Row | SMILES | fold increase | viability
1 | CC(C)Oc1ncnc2c1[nH]c1ccccc12 | 1.42 | 25.1%
2 | COc1ccc(OC)c(C2C3CN(C(C)C)CC=C3C(C#N)=C(N)C2(C#N)C#N)c1 (configuration not stated) | 1.44 | –
3 | O=C1/C(=C/c2ccc(O)c(O)c2)SC(=S)N1Nc1ccccc1 | 3 | 80%
4 | CCOC(=O)CN1C(=O)S/C(=C/C=C/c2ccc(N(C)C)cc2)C1=O | 2.36 | 95.9%
5 | CCCCOc1ccc(CNn2c(C)nc3ccccc3c2=O)cc1 | 1.51 | 97.8%
6 | N#CC(c1nc2ccccc2nc1N1CCCC1)S(=O)(=O)c1ccccc1 (configuration not stated) | 1.38 | 99%
7 | NC(=O)CC1Nc2cccc3cccc(c23)NC1=O (configuration not stated) | 1.36 | –
8 | CCCN1C(=O)c2cccc3c(N4CCCCC4)ccc(c23)C1=O | 6.71 | 83.5%
9 | CC1SCC(NC(=O)c2ccc(Cl)cc2)CS1 (configuration not stated) | 1.32 | –
10 | COc1ccc(C2C(C(C)=O)=C(C)N=c3s/c(=C\c4cc(C)n(C)c4C)c(=O)n32)c(OC)c1 (configuration not stated) | 2.22 | 91.1%
11 | Cc1nc(Cl)c2c(n1)NC1=C(O2)C(=O)CCC1 | 1.55 | –
12 | CCOC(=O)c1c(-c2ccc(C)s2)csc1N | 1.32 | 99.3%
13 | CN1C(=O)C(O)(CC(=O)c2ccccn2)c2cc(Br)ccc21 (configuration not stated) | 1.29 | –
14 | O=C(COc1ccc(S(=O)(=O)N2CCOCC2)cc1)N1CCCCCC1 | 1.4 | 98.9%
15 | O=C(Nc1ccc(F)cc1)OCCN1CCN(Cc2ccccc2)CCC1=O | 1.32 | –
16 | Cc1ccsc1/C=C1\Oc2cc(OCC(=O)c3ccccc3)ccc2C1=O | 1.35 | 102%
17 | CCOC(=O)c1c(NC(=S)Nc2ccc(Cl)cc2)sc2c1CCN(C)C2 | 1.78 | 88.1%
18 | O=C1S/C(=C\c2ccc(N3CCOCC3)o2)C(=O)N1Cc1c(F)cccc1Cl | 4.93 | 82.7%
19 | CCN1CCc2c(sc(NC(=O)Nc3ccc(Cl)c(Cl)c3)c2C(N)=O)C1 | 8.02 | 56.9%
20 | CCCc1cc(=S)n2c([nH]c3ccccc32)c1C#N | 1.33 | 79%
21 | COc1cc2c3nnc(-c4ccc(F)cc4)c-3cn(Cc3cccc(F)c3)c2cc1OC | 1.96 | 93.2%
22 | c1ccc(CNc2cnccn2)cc1 | 1.48 | 99.6%
23 | CCOC(=O)C1=C(C)N=c2s/c(=C/c3ccco3)c(=O)n2C1c1cccc(OC)c1 (configuration not stated) | 1.36 | 94.2%
24 | c1ccc2[nH]c(CN3CCCCCC3)nc2c1 | 1.58 | 100%
25 | O=C(Nc1ccccc1)C1=C(O)CC(c2ccco2)CC1=Nc1ccccc1 (configuration not stated) | 1.58 | 95.5%

Row | SMILES | fold increase | viability
26 | O=C(NC(=S)Nc1ccccc1N1CCCCC1)c1ccco1 | 5.48 | –
27 | Cc1c(Cl)cccc1N(Cc1ccc(C(=O)O)cc1)S(=O)(=O)c1ccccc1 | 1.33 | 94.7%
28 | CN1c2ccccc2C(C)(C)[C@]12C=Cc1cc(O)ccc1O2 | 1.73 | 50%
29 | CCOC(=O)CNc1nc(OCC#N)nc(N2CCOCC2)n1 | 1.42 | 103%
30 | CCC(=O)Nc1ccc(NC(=O)CSc2nnc(C(C)C)n2C)cc1 | 1.13 | –
31 | CCCCCCc1cc2cc(-c3nnc(-c4ccccc4)o3)c(=O)oc2cc1O | 7.73 | 56.1%
32 | CN1CCc2c(sc3nc(SCC(N)=O)n(-c4ccccc4)c(=O)c23)C1 | 1.34 | 97.9%
33 | O=C1/C(=C/c2cccs2)Sc2ccccc21 | 1.34 | –
34 | COc1ccccc1CC(=O)Nc1ccc([N+](=O)[O-])cc1O | 2.16 | 90.5%
35 | O=C1/C(=C/c2ccc(O)cc2)SC(=S)N1CC1CCCO1 (configuration not stated) | 4.8 | 80.4%
36 | CCS(=O)(=O)N1N=C(c2cccc(NS(C)(=O)=O)c2)CC1c1ccccc1 (configuration not stated) | 1.97 | 93.2%
37 | CCn1c2ccccc2c2c3ncc4cccn4c3ccc21 | 1.43 | 59.8%
38 | COC(=O)c1c(Cl)c2n3ccccc3c(C)c(-c3ccccc3)c-2c1C(=O)OC | 1.32 | –
39 | Cc1ccc(C)c(N2CCN(C(=O)c3cc4ccccn4n3)CC2)c1 | 1.44 | 90.1%
40 | Cc1cccc(S(=O)(=O)N2CN(Cc3ccco3)c3nc4ccccc4nc32)c1 | 1.5 | 101%
41 | Cc1ccn2cc(CC(=O)O)nc2c1 | 1.4 | 102%
42 | N#C/C(=C\c1ccc(-c2cccc(Cl)c2)o1)C(=O)Nc1cccc2cccnc12 | 1.12 | –
43 | CSc1nsc(/C=C/Nc2ccc(C)cc2)c1C#N | 1.61 | 90.6%
44 | Cc1ccc[n+](-c2nc([O-])sc2C=O)c1 | 1.39 | 93.4%
45 | CN(C)/C=C(\C#N)C(=O)Nc1ccc(O)cc1F | 1.34 | 89.7%
46 | CN1C(=CC=C2C=C(I)C(=O)C(I)=C2)C(C)(C)c2ccccc21 | 3.3 | 72.1%
47 | Cc1ccc(S(=O)(=O)NNC(=S)NC(C)(C)C)cc1 | 1.32 | –
48 | CC[n+]1c(/C=C/C=C/N(C(C)=O)c2ccccc2)sc2ccccc21 | 2.79 | 76.2%
49 | CCOC(=O)/C=c1\s/c(=C\c2c(OC)ccc3ccccc23)c(=O)n1CC(=O)NCC1CCCO1 (configuration not stated) | 2.23 | 47.4%
50 | C=CCSc1nc(N)c(C(=O)Nc2ccccc2OC)cc1C(=O)Nc1ccccc1 | 1.17 | –

Row | SMILES | fold increase | viability
51 | OCCCc1nc2n(n1)C(c1ccccc1Cl)C=C(c1cccs1)N2 (configuration not stated) | 1.47 | 97.4%
52 | CCN(CC)c1ccc2cc(NC(=O)CCC(=O)O)c(=O)oc2c1 | 1.64 | 97.3%
53 | CNC(=O)/C(C#N)=C/c1ccc(-c2nc3ccccc3s2)o1 | 1.45 | –
54 | CC(=O)Oc1cc2cccc(OC(C)=O)c(=O)c2c(OC(C)=O)c1OC(C)=O | 1.4 | 79.2%
55 | COc1cc(/C=C2\SC(=S)N(NS(=O)(=O)c3ccc(C)cc3)C2=O)ccc1O | 7.81 | 96.2%
56 | CCNC(=O)COC(=O)c1cc(-c2ccco2)nc2ccccc12 | 1.32 | –
57 | Cc1sc2ncn(CC(=O)Nc3cccc(S(N)(=O)=O)c3)c(=O)c2c1-c1ccccc1 | 1.38 | 94.9%
58 | CCOC(=O)N1CCc2c(sc(NC(=O)CN(CC)CC)c2C#N)C1 | 1.32 | –
59 | CCOC(=O)c1ccc(NC(=O)Cn2cc3c(n2)CCC(C)C3)cc1 (configuration not stated) | 1.33 | 104%
60 | O=C(CN1CCC2(CC1)OCCO2)c1ccc2cc[nH]c2c1 | 1.38 | 98.5%
61 | N#Cc1cc2ccccc2nc1SCc1ccccn1 | 1.55 | 87.6%
62 | CCOc1cc([N+](=O)[O-])cc2c1C(=O)Nc1ccccc1O2 | 1.45 | 96.3%
63 | COc1cc(/C=C(\C#N)c2nc3ccccc3[nH]2)cc(OC)c1O | 9.25 | 86.8%
64 | Nc1c(C(=O)N/N=C/c2ccccc2Cl)oc2nc(-c3ccccc3)cc(-c3ccco3)c12 | 1.34 | 95.6%
65 | CC1=Nc2ccccc2/C1=C/c1sc(=S)n(-c2cccc(C(=O)O)c2)c1O | 6.39 | 91.8%
66 | N#C/C(=C(/O)c1ccco1)c1nc2ccccc2[nH]1 | 1.38 | 98%
67 | COc1cc(-c2cc(C(=O)Nc3ccc(S(=O)(=O)Nc4ncccn4)cc3)c3ccccc3n2)cc(OC)c1OC | 1.4 | 97.5%
68 | C=CCNC(=O)C1CC2Cn3c(nc4ccccc43)C2N1C (configuration not stated) | 1.35 | 99.7%
69 | CC(C)(C)C(=O)Oc1ccc2cc(-c3ccc4ccccc4n3)c(=O)oc2c1 | 4.27 | 90.5%
70 | S=C(Nc1cccnc1)NC1CCCC1 | 1.32 | 99.7%
71 | Cc1cc(C(=O)NNc2ccccc2F)no1 | 1.37 | 89.7%
72 | O=C1NC(=O)/C(=C\c2ccc(OCc3cnc(Cl)s3)cc2)S1 | 1.69 | 103%
73 | CCOC(=O)c1sc(S(C)=O)c2c1CCc1conc1-2 (configuration not stated) | 1.38 | 94.6%
74 | O=C1/C(=C/C=C/c2ccco2)SC(=S)N1c1ccc(O)cc1 | 1.33 | –
75 | C(=C\c1ccco1)/C1=NN(c2ccccc2)C(c2ccco2)C1 (configuration not stated) | 2.28 | 103%

Row | SMILES | fold increase | viability
76 | COc1ccc(-n2c(O)c(/C=N/NS(=O)(=O)c3cc(C)ccc3C)c3ccccc3c2=O)cc1OC | 6.36 | 93.1%
77 | Cn1cccc1Cc1nnc(SCC(=O)N2CCc3ccccc32)n1-c1ccc(F)cc1 | 1.6 | –
78 | COc1ccc(-n2c(SCC(=O)Nc3sc4c(c3C#N)CCCC4)nnc2-c2ccccc2OC)cc1 | 1.13 | –
79 | N=C1/C(=C\c2coc3ccc(O)cc3c2=O)C(=O)N=C2SC=CN12 | 1.64 | 92.8%
80 | O=C(C1=NN[C@@H]2C(=O)N(c3cccc(F)c3)C(=O)[C@H]12)c1cnccn1 | 1.34 | 91.8%
81 | CCN(CC)c1ccc2cc(C(N)=O)/c(=N\NC(=O)c3ccncc3)oc2c1 | 7.7 | 75.7%
82 | N#CC(C#N)=C1C=C2C=C(N3CCCCCC3)CCC2CC1 (configuration not stated) | 8.21 | 73.7%
83 | CCOc1ccc(C2C(C#N)=C(N)SC(N)=C2C#N)cc1OC | 1.37 | 96%
84 | O=C(CCCCl)Oc1ccc2cc(-c3ccc4ccccc4n3)c(=O)oc2c1 | 4.9 | 100%
85 | C[n+]1ccc(/C=C/c2c[nH]c3ccccc23)cc1 | 2.29 | 79.8%
86 | O=C(O)C1Sc2[nH]c(=O)sc2C2c3cc(Br)ccc3OC(=O)C12 (configuration not stated) | 1.95 | 99.8%
87 | Cc1ccc(-c2csc(NC(=O)C3=COCCO3)n2)cc1 | 1.35 | 92.8%
88 | COC(=O)c1ccccc1-c1ccc(/C=N/NC(N)=O)o1 | 1.39 | 96.7%
89 | COc1ccc(CCn2c(-c3ccco3)nc3nc4ccccc4nc32)cc1 | 1.52 | 68.3%
90 | COc1ccc(CN(C(=O)Cc2cccs2)C(C(=O)NC2CCCC2)c2ccncc2)cc1 (configuration not stated) | 1.37 | 97.6%
91 | CCN(CC)S(=O)(=O)c1ccc(S(=O)(=O)N2CCN(CCC#N)CC2)cc1 | 1.43 | 96.2%
92 | CCn1c(C)c(C2=CCN(S(=O)(=O)c3ccccc3)CC2)c2ccccc21 | 1.42 | 89.9%
93 | O=C(NC(=S)Nc1ccc(Oc2ccc(Cl)cc2)cc1)c1ccccc1 | 1.22 | –
94 | CCC1=C2CC[C@H]3C(=O)N(C)C(=O)[C@H]3[C@H]2[C@@]2(Cc3ccccc3)C(=NCC(=O)OC)OC(=O)N2C1=O | 1.22 | 101%
95 | O=C1N=c2ccccc2=C1c1sc(=S)n(CC2CCCO2)c1O (configuration not stated) | 1.24 | –
96 | O=C(COC(=O)c1ccccn1)Nc1ccc2c(c1)OCO2 | 1.51 | 95.8%
97 | CN(C)S(=O)(=O)c1ccc(C(=O)Nc2cccc(S(=O)(=O)NC3=NCCC3)c2)cc1 | 1.32 | –
